Measured values as given in patent US4512980A, “Peptide, process for preparation thereof and use thereof” (priority 1979, dated 1985).
Several values for one entry are separate records, joined by “and”; a condition that tells them apart may be missing. Equal values may be shown once. Where a name gives a salt, the structure may show the parent alone. Part of at least one peptide drawing is inferred or uncertain, most often the ends. Numbered stars: 1 amine (or outer) side, 2 acyl side, 3 side chain; on linkers, the order of the positions; unused ones are H or OH. Square brackets hold non-standard residues; d marks the D form. Peptide text beside a SMILES is read from it. d(γGlu) = O=C(O)[C@@H](CCC(=O)[*:2])N[*:1]; dLac = C[C@@H](O)C(=O)O

Experiments:
[1] = system: Mice (DDY male 5-6 W); assay: Blood stream clearance of carbon; assay type: in vivo; settings: carbon clearance measured 24 hours later
Protocol: 1. Carbon suspension. Rotoring drawing ink (170 mg carbon/ml.) was diluted to 1/5 of the original concentration in saline containing 1% gelatin. 2. 0.1% aqueous sodium carbonate solution. Mice (DDY male 5-6 W) were injected via the tail vein with a dose of 0.01 ml/g body weight of carbon. Blood samples were taken by means of a pointed capillary […] calibrated to hold a 50 μl and previously washed in heparin. This was plunged into the retroorbital venous sinus at the nasal angle of the eye. The samples were removed at 3 and 6 min. The blood was immediately discharged into 3.0 ml. of the sodium carbonate solution. This hemolyzed the blood and allowed the quantitation of carbon. The samples were then read in a spectrophotometer at 660 nm, the log concentration being obtained from a previously determined standard curve. The clearance value K may be determined by plotting log carbon concentration against time according to the following relationship; [formula] in which T1 and T2 represent the time in min when the sample were withdrawn and C1 and C2 represent the concentrations of carbon in the blood at the time T1 and T2, respectively. The aqueous solution of the drug as given was administered subcutaneously to mice. Twenty four hours later, blood stream clearance of carbon was measured. K value obtained with treated mice was compared with that of control mice.

[2] = system: Guinea pigs; assay: Enhancing activity of cellular immunity (skin reaction to ovalbumin); assay type: in vivo; settings: skin test day 14, read at 48 hours
[3] = system: mouse spleen cells; assay: Mitogenic activities for mouse spleen cells ([3H] thymidine uptake); assay type: cell-based; settings: BALB/C spleen cells, control = 1.0
[4] = dose 100 mg/mouse subcutaneously
[5] = dose 0.1 mg/mouse subcutaneously

CC(=O)N[C@H](CCC[C@H](NC(=O)CC[C@@H](NC(=O)[C@H](C)NC(=O)[C@@H](C)O)C(=O)O)C(=O)NCC(=O)O)C(=O)O [Example 8, D-Lac-L-Ala-γ-D-Glu(α-OH)-(L)-mesoDAP-(D)-acety-(L)-GlyOH]
K treated/K control ([1]; dose 1 mg/mouse subcutaneously): 2.0 | K treated/K control [1, 4]: 3.0 | Cellular immunity skin reaction (diameter, M ± S.E.) ([2]; dose 1 μg/site with ovalbumin in FIA): 2.0 ± 1.3 m · m | Cellular immunity skin reaction (diameter, M ± S.E.) ([2]; dose 10 μg/site with ovalbumin in FIA): 7.1 ± 1.1 m · m

C[C@H](NC(=O)[C@@H](C)O)C(=O)N[C@H](CCC(=O)N[C@@H](CCC[C@@H](N)C(=O)O)C(=O)NCC(=O)O)C(=O)O [Reference Compound, reference compound]
K treated/K control [1, 5]: 2.0 | K treated/K control ([1]; dose 1 mg/mouse subcutaneously): 1.8 and 1.3 and 2.2 and 2.4

C[C@H](NC(=O)[C@@H](C)O)C(=O)N[C@H](CCC(=O)N[C@@H](Cc1ccc(O)cc1)C(=O)NCC(=O)O)C(=O)O [Example 7 (Step 2), D-Lac-L-Ala-γ-D-Glu(α-OH)-L-Tyr-GlyOH] (H-[dLac]A[d(γGlu)]YG-OH)
K treated/K control [1, 5]: 1.8 | K treated/K control ([1]; dose 1 mg/mouse subcutaneously): 2.4

CC(C)[C@H](NC(=O)CC[C@@H](NC(=O)[C@H](C)NC(=O)[C@@H](C)O)C(=O)O)C(=O)NCC(=O)O [Example 9 (Step 2), D-Lac-L-Ala-γ-D-Glu(α-OH)-L-Val-GlyOH] (H-[dLac]A[d(γGlu)]VG-OH)
Stimulation Index ([3]; concentration 10 μg/ml): 1.5 | Stimulation Index ([3]; concentration 100 μg/ml): 2.7

C[C@H](NC(=O)[C@@H](C)O)C(=O)N[C@H](CCC(=O)N[C@@H](CCC(=O)O)C(=O)NCC(=O)O)C(=O)O [Example 12 (Step 3), D-Lac-L-Ala-γ-D-Glu(α-OH)-L-Glu(γ-OH)-GlyOH] (H-[dLac]A[d(γGlu)]EG-OH)
K treated/K control ([1]; dose 1 mg/mouse subcutaneously): 1.0 | K treated/K control [1, 4]: 1.7

CCCCCCC(=O)N[C@H](CCC(=O)N[C@@H](CCC[C@@H](NC(=O)CC[C@@H](NC(=O)CCCCCC)C(=O)O)C(=O)O)C(=O)O)C(=O)O [Example 3 (Step 2), Bis(heptanoyl-γ-D-Glu(α-OH)-mesoDAP (di sodium salt)]
K treated/K control ([1]; dose 1 mg/mouse subcutaneously): 1.8 | K treated/K control [1, 4]: 2.9

C[C@H](NC(=O)[C@@H](C)O)C(=O)N[C@H](CCC(=O)N[C@@H](CCC[C@@H](NC(=O)[C@@H](C)NC(=O)[C@H](CCC[C@@H](N)C(=O)O)NC(=O)CC[C@@H](NC(=O)[C@H](C)NC(=O)[C@@H](C)O)C(=O)O)C(=O)O)C(=O)N[C@H](C)C(=O)O)C(=O)O [Example 14 (Step 2), D-Lac-L-Ala-γ-D-Glu-(α-OH)-(L)-[D-Lac-L-Ala-γ-D-Glu(α-OH)-(L)-mesoDAP-(L)-D-Ala]-(D)-mesoDAP-(L)-D-Ala]
K treated/K control ([1]; dose 1 mg/mouse subcutaneously): 1.9 | K treated/K control [1, 4]: 1.6

CCCCCCC(=O)N[C@H](CCC(=O)N[C@@H](CCC[C@@H](NC(=O)[C@@H](C)N)C(=O)O)C(=O)O)C(=O)O [Example 11 (Step 3), n-heptanopyl-γ-D-Glu(α-OH)-(L)-D-Ala-mesoDAP]
K treated/K control ([1]; dose 1 mg/mouse subcutaneously): 0.9 | K treated/K control [1, 4]: 1.3

C[C@@H](N)C(=O)N[C@H](CCC[C@H](NC(=O)CC[C@@H](N)C(=O)O)C(=O)O)C(=O)O [Example 5 (Step 3), γ-D-Glu(α-OH)-(L)-D-A1a-(D)-mesoDAP]
K treated/K control ([1]; dose 1 mg/mouse subcutaneously): 0.7 | K treated/K control [1, 4]: 1.2
